Data: the antibiotic and cytotoxicity screens of Wong et al. (2023)
The list shows a part of the results.

Each compound was assayed on HSkMC (human skeletal muscle cells) (assay: cytotoxicity call (relative viability < 0.9)). Details: 10 µM.
With `C[C@H]1CN([C@@H](C)CO)C(=O)c2cc(-c3cccc(C#N)c3)cnc2O[C@H]1CN(C)C(=O)c1cnccn1` the cytotoxicity call was “inactive”. With `CCS(=O)(=O)N1[C@@H](CO)[C@H](c2ccccc2)C12CN(C(=O)CN(C)C)C2` the cytotoxicity call was “inactive”. For `COc1ccc(NC(=O)N(C)C[C@@H]2OCCCC[C@H](C)Oc3ccc(NC(=O)C4CCCCC4)cc3C(=O)N([C@@H](C)CO)C[C@H]2C)cc1`, the cytotoxicity call was “inactive”. In the case of `O=C(N[C@H]1C=C[C@@H](CC(=O)N2CCOCC2)O[C@@H]1CO)c1ccc2c(c1)OCO2`, the cytotoxicity call is reported as “inactive”. `C/C=C/c1ccc2c(c1)O[C@@H](CN(C)S(=O)(=O)c1ccc(C)cc1)[C@@H](C)CN([C@H](C)CO)S2(=O)=O` was tested, and the cytotoxicity call was “inactive”. With `C[C@H]1CN([C@@H](C)CO)C(=O)c2cccc(NC(=O)Nc3ccccc3)c2O[C@H]1CN(C)Cc1ccc(C(F)(F)F)cc1` the cytotoxicity call was “inactive”. With `C[C@@H]1CN([C@@H](C)CO)C(=O)c2cccc(NC(=O)c3ccncc3)c2O[C@H]1CN(C)S(=O)(=O)c1ccccc1` the cytotoxicity call was “inactive”. For `COc1ccc(NC(=O)N(C)C[C@H]2OCCCC[C@H](C)Oc3ccc(NC(=O)c4ccccc4)cc3C(=O)N([C@@H](C)CO)C[C@H]2C)cc1`, the cytotoxicity call was “inactive”. In the case of `COC(=O)CCCCCCC(=O)Nc1ccc(NC(=O)CCCC[P+](c2ccccc2)(c2ccccc2)c2ccccc2)cc1`, the cytotoxicity call is reported as “inactive”.

These compounds were tested on HepG2 (assay: cytotoxicity call (relative viability < 0.9)). Details: 10 µM.
With `C[C@H](CO)N1C[C@H](C)[C@@H](CN(C)CC2CCCCC2)Oc2ccc(NC(=O)CCN3CCOCC3)cc2C1=O` the cytotoxicity call was “inactive”. In the case of `COc1ccc(S(=O)(=O)Nc2ccc3c(c2)C(=O)N([C@@H](C)CO)C[C@H](C)[C@H](CN(C)C(=O)Nc2c(C)noc2C)O3)cc1`, the cytotoxicity call is reported as “inactive”. In the case of `Cl.OC(c1cc(C(F)(F)F)nc2c(C(F)(F)F)cccc12)C1CCCCN1` (stereo unspecified), the cytotoxicity call is reported as “active”. In the case of `COC(=O)/C=C/c1cn([C@H]2OC[C@@H](CO)[C@@H]2O)c(=O)[nH]c1=O`, the cytotoxicity call is reported as “inactive”. `C[C@@H]1CN([C@@H](C)CO)S(=O)(=O)c2ccc(C#Cc3ccncc3)cc2O[C@@H]1CN(C)C(=O)Nc1ccc2c(c1)OCO2` was tested, and the cytotoxicity call was “active”. `CC(C)C#Cc1ccc2c(c1)O[C@@H](CN(C)C(=O)Cc1ccccn1)[C@H](C)CN([C@@H](C)CO)S2(=O)=O` was tested, and the cytotoxicity call was “inactive”. With `CC(=O)N1CCN(CC(N)=S)CC1` the cytotoxicity call was “inactive”. With `C[C@@H]1CCCCO[C@H](CN(C)C(=O)c2ccccc2)[C@H](C)CN([C@@H](C)CO)C(=O)c2cc(NS(=O)(=O)c3ccc(Cl)cc3)ccc2O1` the cytotoxicity call was “inactive”. `C[C@@H]1CCCCO[C@@H](CN(C)Cc2ccc(C(=O)O)cc2)[C@H](C)CN([C@@H](C)CO)C(=O)c2cc(NC(=O)Nc3ccc(F)cc3)ccc2O1` was tested, and the cytotoxicity call was “inactive”. For `Cc1noc(C)c1S(=O)(=O)Nc1ccc2c(c1)C(=O)N([C@@H](C)CO)C[C@@H](C)[C@@H](CN(C)Cc1ccc(C(=O)O)cc1)O2`, the cytotoxicity call was “inactive”. In the case of `COc1ccccc1-c1ccc2c(c1)O[C@H](CN(C)CC1CCOCC1)[C@H](C)CN([C@H](C)CO)S2(=O)=O`, the cytotoxicity call is reported as “inactive”. With `COCCNC(=O)C[C@H]1CC[C@@H]2[C@H](COc3ccc(NS(=O)(=O)c4ccc(Cl)cc4)cc3C(=O)N2C)O1` the cytotoxicity call was “inactive”. `C[C@@H]1CN([C@H](C)CO)C(=O)Cc2cc(NC(=O)c3ccncc3)ccc2O[C@@H]1CN(C)S(=O)(=O)c1cccs1` was tested, and the cytotoxicity call was “inactive”. With `C[C@@H]1CN([C@@H](C)CO)C(=O)c2c(c3ccccc3n2C)-c2ccccc2CO[C@@H]1CN(C)C(=O)Nc1ccc2c(c1)OCO2` the cytotoxicity call was “inactive”. `C[C@@H](N)c1nc2c(s1)CCCC2` was tested, and the cytotoxicity call was “inactive”. For `O=c1n(C[C@H]2CO2)c(=O)n(C[C@H]2CO2)c(=O)n1C[C@H]1CO1`, the cytotoxicity call was “inactive”. `COc1ccccc1OC[C@@H](O)COC(N)=O` was tested, and the cytotoxicity call was “inactive”. `O=C(C[C@@H]1CC[C@@H](NC(=O)c2cccnc2)[C@@H](CO)O1)NCCN1CCCCC1` was tested, and the cytotoxicity call was “inactive”. `C[C@@H]1CCCCO[C@H](CN(C)Cc2ccc3c(c2)OCO3)[C@H](C)CN([C@@H](C)CO)C(=O)c2cc(NS(=O)(=O)c3ccc(Cl)cc3)ccc2O1` was tested, and the cytotoxicity call was “active”. For `C[C@H]1CN([C@@H](C)CO)C(=O)c2cc(NC(=O)NC3CCCCC3)ccc2O[C@@H]1CN(C)Cc1ccc(-c2ccccc2)cc1`, the cytotoxicity call was “active”. In the case of `C[C@H]1CN([C@@H](C)CO)S(=O)(=O)c2ccc(C#CCC3CCCC3)cc2O[C@H]1CN(C)C(=O)CN(C)C`, the cytotoxicity call is reported as “active”. `C[C@H]1CCCCO[C@@H](CN(C)C(=O)c2ccccc2)[C@@H](C)CN([C@@H](C)CO)C(=O)c2cc(NC(=O)c3ccccc3)ccc2O1` was tested, and the cytotoxicity call was “inactive”.
